Reference: PubChem BioAssay AID1745853 (National Center for Advancing Translational Sciences (NCATS), 2022)
The other results are listed elsewhere or left out. These are further read-outs of the screen, such as a control signal, another cell line or another target. No call is given for them.

Experiments:
Assay in all cases: Primary Screen for Target Class Profiling of Small Molecule Inhibitors of Methyltransferases
[1] = biological target: Glycine N-methyltransferase (Homo sapiens) (UniProt Q14749); conditions: purified enzyme, MTase-Glo SAH luminescence; measured here: GNMT inhibition; at 40 µM; stronger effect = lower value
From the text: (§1) PI: Matthew D. Hall Ph.D. and Quinlin M. Hanson Ph.D.
(§2) National Center for Advancing Translational Sciences (NCATS)
(§3) National Institute of Health (NIH), Rockville, MD
(§4) Target class profiling (TCP) is a chemical biology approach amenable to investigating understudied biological targets. TCP is achieved by developing a generalizable assay platform and applying it to screen a curated set of compound libraries against representative members of a target class. Small molecule methyltransferases (SMMTase) are a subclass of methyltransferase that act on metabolites to modulate signaling pathways, metabolize xenobiotics, or balance the available methyl pool. We screened four curated libraries totaling 27,574 unique compounds against the SMMTases nicotinamide N-methyltransferase (NNMT), phenylethanolamine N-methyltransferase (PNMT), histamine N-methyltransferase (HNMT), glycine N-methyltransferase (GNMT), catechol O-methyltransferase (COMT), and guanidinoacetate N-methyltransferase (GAMT). The data generated by this TCP can be leveraged for informed tool molecule development. For example, in the associated publication we identified a chemotype of HNMT-selective inhibitors. Additionally, we identified a putative SMMTase-selective inhibitor with potential as a tool molecule for studying broader methyltransferase biology.
(§5) High-through put screening assays were developed at the National Center for Advancing Translational Science (NCATS) for the enzymes NNMT, PNMT, HNMT, GNMT, COMT, and GAMT. Enzymatic activity was measured as a function of SAM cofactor conversion using the MTase Glo kit (Promega) for all enzymes. All assays were performed in 1536-well format with substrates and SAM concentrations at KM values. Enzyme concentration and assay timing were optimized for 10-20% SAM conversion. Initial screening of 27,574 compounds was done as single-point assays using the highest compound concentration (40 uM). […] These compounds were replated in 11-point dose response and assayed against NNMT, PNMT, HNMT, GNMT, COMT, GAMT, and a counter-assay. The IC50 and efficacy (maximal response) values were determined for each dose-response curve. These values are also accounted for in the area under the curve (AUC) values.
(§6) PROTOCOL TABLE (as described by Inglese J, Shamu CE and Guy RK. 2007)
(§7) SEQUENCE No. (e.g., 1, 2, 3, etc.); […] (e.g., Cells, Incubation, Reagent, etc.); VALUE; DESCRIPTION.
(§8) 1; Reagent; 2 uL; SMMTase Enzyme (2x) in reaction buffer, columns 1- 48.
(§9) 2; Reagent; 1 uL; SAM (4x) in reaction buffer, columns 1-48.
(§10) 3; Controls; 23 nL; DMSO in column 4; sinefungin in DMSO (0 uM - 40 uM) in 7-point 1:2 dilution series (n = 2) in column 2.
(§11) 4; Compounds; 23 nL; Columns 5-48.
(§12) 5; Reagent; 1 uL; Substrate (4x) in reaction buffer, columns 2-48.
(§13) 6; Time; 20-30 min; Incubation.
(§14) 7; Reagent; 1 uL; MTase-Glo reagent (5X), columns 1-48.
(§15) 8; Time; 30 min; Incubation.
(§16) 9; Reagent; 5 uL; MTase-Glo Detection reagent, columns 1-48.
(§17) 10; Time; 30 min; Incubation, luminescence evolution.
(§18) 11; Detection; Luminescence; ViewLux uHTS Microplate Imager (PerkinElmer).
(§19) NOTES (numbers refer to Sequence numbers above)
(§20) 1, 2, 5. White Medium Binding Greiner 1536-well plates (Cat #789175-F, Greiner Bio-One, Monroe, NC); Reaction buffer: 50 mM Tris, pH 8.0, 3 mM MgCl2, 1 mM EDTA, 50 mM NaCl, 1 mM DTT, and 0.1 mg/mL BSA. Evaporation was prevented by covering assay plates with metal lids containing holes to allow gas diffusion.
(§21) 1. Six SMMTase were profiled: HNMT, GNMT, PNMT, COMT, NNMT, GAMT
(§22) 5. The corresponding substrate was used for each enzyme: HNMT - 5.3 uM Histamine; GNMT - >500 uM Glycine; PNMT - 16.2 uM Norephinephrine; COMT - 13.7 uM Norephinephrine; NNMT - 3.8 uM Nicotinamide; GAMT - 2.5 uM Guanidinoacetate.6, 8, 10. Room temperature
(§23) 6. Final reaction conditions: 10 nM COMT, 5 uM SAM, 15 uM norepinephrine, 50 mM Tris, pH 8.0, 3 mM MgCl2, 1 mM EDTA, 50 mM NaCl, 1 mM DTT, and 0.1 mg/mL BSA; refer to tables 2 and S1 for specific timing.
8. […]

[2] = biological target: Guanidinoacetate N-methyltransferase (Homo sapiens) (UniProt Q14353); conditions: purified enzyme, MTase-Glo SAH luminescence; measured here: GAMT inhibition; at 40 µM; stronger effect = lower value
From the text: as §1, §2, §3, §4, §5, §6, §7, §8, §9, §10, §11, §12, §13, §14, §15, §16, §17, §18, §19, §20, §21, §22, §23
8. […]

[3] = biological target: Histamine N-methyltransferase (Homo sapiens) (UniProt P50135); conditions: purified enzyme, MTase-Glo SAH luminescence; measured here: HNMT inhibition; at 40 µM; stronger effect = lower value
From the text: as §1, §2, §3, §4, §5, §6, §7, §8, §9, §10, §11, §12, §13, §14, §15, §16, §17, §18, §19, §20, §21, §22, §23
8. […]

[4] = biological target: Nicotinamide N-methyltransferase (Homo sapiens) (UniProt P40261); conditions: purified enzyme, MTase-Glo SAH luminescence; measured here: NNMT inhibition; at 40 µM; stronger effect = lower value
From the text: as §1, §2, §3, §4, §5, §6, §7, §8, §9, §10, §11, §12, §13, §14, §15, §16, §17, §18, §19, §20, §21, §22, §23
8. […]

[5] = biological target: Phenylethanolamine N-methyltransferase (Homo sapiens) (UniProt P11086); conditions: purified enzyme, MTase-Glo SAH luminescence; measured here: PNMT inhibition; at 40 µM; stronger effect = lower value
From the text: as §1, §2, §3, §4, §5, §6, §7, §8, §9, §10, §11, §12, §13, §14, §15, §16, §17, §18, §19, §20, §21, §22, §23
8. […]
% is set by controls: 0 for no effect and ±100 for the full control effect.

Structure (SMILES) | activity change, negative = inhibition [1] | activity change, negative = inhibition [2] | activity change, negative = inhibition [3] | activity change, negative = inhibition [4] | activity change, negative = inhibition [5]
CCCCNc1ncc(C(=O)NCc2ccc(-n3ccnc3)cc2)c(NC2CCC(O)CC2)n1 (stereo not given) | -15.1% | -10.3% | -45.3% | -64.5% | -35.5%
CCNC(=O)[C@@H]1C[C@H](n2cc(CN(C)C(=O)c3cccc(C)c3C)nn2)CN1 | 0.019% | 0.836% | 0.07% | -0.42% | -12.2%
CN(Cc1ccccc1)C(=O)c1ncn2c1C(=O)N(C1CC1)C(C)(C(=O)NCc1ccccc1Cl)C2 (stereo not given) | -0.79% | 0% | 5.33% | 1.71% | 5.15%
C/C=C1\[C@H](O[C@@H]2O[C@H](CO)[C@@H](O)[C@H](O)[C@H]2O)OC=C(C(=O)OC)[C@H]1CC(=O)OC[C@H]1O[C@@H](OCCc2ccc(O)cc2)[C@H](O)[C@@H](O)[C@@H]1O | -2.74% | -6.25% | 4.61% | -15.4% | -4.56%
CC(C)n1c(=O)c2ccc(C(=O)NC3CCCC3)cc2n2c(=O)[nH]nc12 | -7.74% | 3.13% | -2.14% | -4.52% | -12.1%
CCCn1c(=O)c2ccc(C(=O)NCC(C)C)cc2n2c(=O)n(Cc3ccccc3F)nc12 | 3.71% | 1.29% | 7.65% | 0.965% | 3.57%
CCc1ccc(CNC(=O)c2cc3n(n2)CC(C)(C(=O)NCc2ccc(F)cc2)N(C)C3=O)cc1 (stereo not given) | 0.403% | -2.37% | -6.83% | 3.2% | 0.901%
CC1(C)CC[C@]2(C(=O)O)CC[C@]3(C)C(=CCC4[C@@]5(C)CC[C@H](O[C@H]6O[C@H](C(=O)O)[C@@H](O)[C@H](O[C@@H]7O[C@H](CO)[C@H](O)[C@H](O)[C@H]7O)[C@H]6O)C(C)(C)C5CC[C@]43C)[C@@H]2C1 (stereo not given in full) | -0.494% | -2.14% | 8.6% | -13.8% | -2.45%
O=C1N(Cc2cccc(F)c2F)CCCC1(O)CNCc1ccccc1 (stereo not given) | -6.85% | 0.069% | -1.76% | -4.22% | -2.94%
CC1CCCC(NC(=O)C2(C)Cn3c(nc4ccccc43)C(=O)N2Cc2cccc(Cl)c2)C1C (stereo not given) | 7.32% | 0.607% | 7.84% | 8.55% | 3.47%
CCCn1c(=O)c2cc(Cl)ccc2n2c(SCC(=O)Nc3ccccc3C)nnc12 | -12% | 2.65% | 5.98% | -3.67% | 1.43%
O=C(C1CCCN1C(=O)C1CC1)N1CCCC(c2nc3ncccc3[nH]2)C1 (stereo not given) | -6.26% | -8.19% | -3.78% | -16.7% | -8.71%
COC(=O)[C@H](NC(=O)[C@@H]1[C@@H](NC(=O)Nc2cccc(OC)c2)CCN1C(=O)c1cnccn1)C(C)C | -0.632% | -4.01% | -2.08% | -0.812% | -2.21%
COc1ccc(C)cc1NC(=O)N1CCCC1c1nncn1C1CCCC1 (stereo not given) | -7.59% | -14.3% | -5.09% | -13.3% | -6.1%
